This passage reports IC50 results from US20260193238A1, “PHARMACEUTICAL COMPOUNDS AS PARP7 AND/OR PARP1 INHIBITORS” (Duke Street Bio Limited, priority 2022, published 2026).

In one experiment the target is T1, PARP7 (amino acids 456-657) (Homo sapiens, UniProt Q7Z3E1).
T1 sequence (Q7Z3E1 456-657): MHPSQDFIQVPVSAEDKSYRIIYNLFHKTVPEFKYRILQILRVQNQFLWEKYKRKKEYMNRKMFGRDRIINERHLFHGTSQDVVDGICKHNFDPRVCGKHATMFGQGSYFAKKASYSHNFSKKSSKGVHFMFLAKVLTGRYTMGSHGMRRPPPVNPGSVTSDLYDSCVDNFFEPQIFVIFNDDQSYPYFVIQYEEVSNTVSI
As to the kind of experiment: PARP7 biochemical DELFIA assay (auto-MARylation). As to conditions: Table 1.
For orientation: IC50 means the point on the concentration scale where inhibition reaches its midpoint. Higher therefore signals weaker potency. “6-(1-(3-oxo-3-(4-(5-(trifluoromethyl)pyrimidin-2-yl)piperazin-1-yl)propyl)azetidin-2-yl)-4-(trifluoromethyl)pyridazin-3(2H)-one [Compound 5rac]” returned an IC50 of at most 10 nM.
Take `O=C(CCN1CCCCC(c2cc(C(F)(F)F)c(=O)[nH]n2)C1)N1CCN(c2ncc(C(F)(F)F)cn2)CC1` (racemic) [Compound 12rac]: the IC50 was 100 to 1000 nM.
For the molecule `O=C(CCN1CCCC(c2cc(C(F)(F)F)c(=O)[nH]n2)C1)N1CCN(c2ncc(F)cn2)CC1` (racemic) [Compound 17rac], the 50% inhibitory concentration (IC50) lay within 100 to 1000 nM.
`O=C(CN1CCC(c2cc(C(F)(F)F)c(=O)[nH]n2)C1)N1CCN(c2ncc(C(F)(F)F)cn2)CC1` (racemic) [Compound 19rac] registered an IC50 of 10 to 100 nM.
`O=C(CCN1CCCC(c2cc(C(F)(F)F)c(=O)[nH]n2)C1)N1CCN(c2ncc(Cl)cn2)CC1` (racemic) [Compound 20rac]: the half-inhibitory concentration (IC50) was in the range of 100 to 1000 nM.
`O=C(CCN1CCCCC1c1cc(C(F)(F)F)c(=O)[nH]n1)N1CCN(c2ncc(C(F)(F)F)cn2)CC1` (racemic) [Compound 21rac] registered an IC50 of 10 to 100 nM.
Consider `CCc1cc(C2CCCN(CCC(=O)N3CCN(c4ncc(C(F)(F)F)cn4)CC3)C2)c[nH]c1=O` (racemic) [Compound 22rac, 3-ethyl-5-(1-(3-oxo-3-(4-(5-(trifluoromethyl)pyrimidin-2-yl)piperazin-1-yl)propyl)piperidin-3-yl)pyridin-2(1H)-one], for which the 50% inhibitory concentration (IC50) lay in the range of 100 to 1000 nM.
Regarding `O=C(CCN1CCCC(c2cc(C(F)(F)F)c(=O)[nH]n2)C1)N1CCN(c2cnc(C(F)(F)F)cn2)CC1` (racemic) [Compound 30rac], the 50% inhibitory concentration (IC50) fell in the range of 100 to 1000 nM.
In turn, `O=C(CCN1CCCC(c2cc(C(F)(F)F)c(=O)[nH]n2)C1)N1CCN(c2ncc(C(F)(F)F)cn2)CC1` (single isomer, unassigned) [Compound 1a, 6-(1-(3-oxo-3-(4-(5-(trifluoromethyl)pyrimidin-2-yl)piperazin-1-yl)propyl)piperidin-3-yl)-4-(trifluoromethyl)pyridazin-3(2H)-one] gave an IC50 of 1000 to 10000 nM.
Consider `O=C(CCN1CCCC(c2cc(C(F)(F)F)c(=O)[nH]n2)C1)N1CCN(c2ncc(C(F)(F)F)cn2)CC1` (single isomer, unassigned) [Compound 1b, 6-(1-(3-oxo-3-(4-(5-(trifluoromethyl)pyrimidin-2-yl)piperazin-1-yl)propyl)piperidin-3-yl)-4-(trifluoromethyl)pyridazin-3(2H)-one], for which the concentration for half-maximal inhibition (IC50) fell in the range of 100 to 1000 nM.
`O=C(CN1CCCC(c2cc(C(F)(F)F)c(=O)[nH]n2)C1)NC1CCN(c2ncc(C(F)(F)F)cn2)CC1` (single isomer, unassigned) [Compound 2a] had an IC50 of 100 to 1000 nM.
Same read-out and setting: in the case of `O=C(CN1CCCC(c2cc(C(F)(F)F)c(=O)[nH]n2)C1)NC1CCN(c2ncc(C(F)(F)F)cn2)CC1` (single isomer, unassigned) [Compound 2b] it was 10 to 100 nM; in that of `CN(C(=O)CN1CCCC(c2cc(C(F)(F)F)c(=O)[nH]n2)C1)C1CCN(c2ncc(C(F)(F)F)cn2)CC1` (single isomer, unassigned) [Compound 3a], 10 to 100 nM; in that of `CN(C(=O)CN1CCCC(c2cc(C(F)(F)F)c(=O)[nH]n2)C1)C1CCN(c2ncc(C(F)(F)F)cn2)CC1` (single isomer, unassigned) [Compound 3b], 100 to 1000 nM.
For `O=C(CCC1CCN(c2ncc(C(F)(F)F)cn2)CC1)N1CCCC(c2cc(C(F)(F)F)c(=O)[nH]n2)C1` (single isomer, unassigned) [Compound 4a], the 50% inhibitory concentration (IC50) is 1000 to 10000 nM.
Still for that read-out and setting: in the case of `O=C(CCC1CCN(c2ncc(C(F)(F)F)cn2)CC1)N1CCCC(c2cc(C(F)(F)F)c(=O)[nH]n2)C1` (single isomer, unassigned) [Compound 4b] it was 100 to 1000 nM; in that of `CCc1cc(C2CCCN(CCC(=O)N3CCN(c4ncc(C(F)(F)F)cn4)CC3)C2)n[nH]c1=O` (single isomer, unassigned) [Compound 6a, 4-ethyl-6-(1-(3-oxo-3-(4-(5-(trifluoromethyl)pyrimidin-2-yl)piperazin-1-yl)propyl)piperidin-3-yl)pyridazin-3(2H)-one], 100 to 1000 nM; in that of `CCc1cc(C2CCCN(CCC(=O)N3CCN(c4ncc(C(F)(F)F)cn4)CC3)C2)n[nH]c1=O` (single isomer, unassigned) [Compound 6b, 4-ethyl-6-(1-(3-oxo-3-(4-(5-(trifluoromethyl)pyrimidin-2-yl)piperazin-1-yl)propyl)piperidin-3-yl)pyridazin-3(2H)-one], 1000 to 10000 nM.
With `O=C(CCN1CCC(c2cc(C(F)(F)F)c(=O)[nH]n2)C1)N1CCN(c2ncc(C(F)(F)F)cn2)CC1` (single isomer, unassigned) [Compound 7a], the IC50 lay in the range of 100 to 1000 nM.
Molecule `O=C(CCN1CCCC(c2cc(C(F)(F)F)c(=O)[nH]n2)C1)N1CCN(c2ccc(F)cn2)CC1` (single isomer, unassigned) [Compound 8a] displayed an IC50 of 100 to 1000 nM.
`O=C(CCN1CCCC(c2cc(C(F)(F)F)c(=O)[nH]n2)C1)N1CCN(c2ccc(F)cn2)CC1` (single isomer, unassigned) [Compound 8b] showed a 50% inhibitory concentration (IC50) of 1000 to 10000 nM.
On to `O=C(CCN1CCN(c2ncc(C(F)(F)F)cn2)CC1)N1CCCC(c2cc(C(F)(F)F)c(=O)[nH]n2)C1` (single isomer, unassigned) [Compound 9a], for which the half-maximal inhibitory concentration (IC50) lay in the range of 100 to 1000 nM.
With `N#Cc1ccc(N2CCN(C(=O)CCN3CCCC(c4cc(C(F)(F)F)c(=O)[nH]n4)C3)CC2)nc1` (single isomer, unassigned) [Compound 11b], the IC50 lay within 1000 to 10000 nM.
Molecule `O=C(CCN1CCCC(c2cc(C(F)(F)F)c(=O)[nH]n2)C1)N1CCN(c2ncc(OC(F)(F)F)cn2)CC1` (single isomer, unassigned) [Compound 13a] returned an IC50 of 1000 to 10000 nM.
Same read-out and setting: with `O=C(CN1CCCC(c2cc(C(F)(F)F)c(=O)[nH]n2)C1)N1CCN(c2ncc(C(F)(F)F)cn2)CC1` (single isomer, unassigned) [Compound 14a] the figure was 10 to 100 nM.
On the same count and under the same terms, in the case of `O=C(CN1CCCC(c2cc(C(F)(F)F)c(=O)[nH]n2)C1)N1CCN(c2ncc(C(F)(F)F)cn2)CC1` (single isomer, unassigned) [Compound 14b] it was 10 to 100 nM; in that of `O=C(CCN1CCCC(c2cc(C(F)(F)F)c(=O)[nH]n2)C1)N1CCN(c2ccc(Cl)cn2)CC1` (single isomer, unassigned) [Compound 15a], 100 to 1000 nM.
The same measure, in the same setting: with `O=C(CCN1CCCC(c2cc(C(F)(F)F)c(=O)[nH]n2)C1)N1CCN(c2ccc(Cl)cn2)CC1` (single isomer, unassigned) [Compound 15b] the figure was 1000 to 10000 nM; with `O=C(CCN1CCCC1c1cc(C(F)(F)F)c(=O)[nH]n1)N1CCN(c2ncc(C(F)(F)F)cn2)CC1` (single isomer, unassigned) [Compound 18a, 6-(1-(3-oxo-3-(4-(5-(trifluoromethyl)pyrimidin-2-yl)piperazin-1-yl)propyl)pyrrolidin-2-yl)-4-(trifluoromethyl)pyridazin-3(2H)-one], at most 10 nM.
Molecule `O=C(CCN1CCCC1c1cc(C(F)(F)F)c(=O)[nH]n1)N1CCN(c2ncc(C(F)(F)F)cn2)CC1` (single isomer, unassigned) [Compound 18b, 6-(1-(3-oxo-3-(4-(5-(trifluoromethyl)pyrimidin-2-yl)piperazin-1-yl)propyl)pyrrolidin-2-yl)-4-(trifluoromethyl)pyridazin-3(2H)-one] gave an IC50 of 10 to 100 nM.
In the case of `O=C(CN1CCCC1c1cc(C(F)(F)F)c(=O)[nH]n1)N1CCN(c2ncc(C(F)(F)F)cn2)CC1` (single isomer, unassigned) [Compound 24a, 6-(1-(2-oxo-2-(4-(5-(trifluoromethyl)pyrimidin-2-yl)piperazin-1-yl)ethyl)pyrrolidin-2-yl)-4-(trifluoromethyl)pyridazin-3(2H)-one], the half-inhibitory concentration (IC50) is 1000 to 10000 nM.
For the molecule `O=C(CN1CCCC1c1cc(C(F)(F)F)c(=O)[nH]n1)N1CCN(c2ncc(C(F)(F)F)cn2)CC1` (single isomer, unassigned) [Compound 24b, 6-(1-(2-oxo-2-(4-(5-(trifluoromethyl)pyrimidin-2-yl)piperazin-1-yl)ethyl)pyrrolidin-2-yl)-4-(trifluoromethyl)pyridazin-3(2H)-one], the IC50 was at most 10 nM.

The same experiment, now with this note: Table 1A.
Take `N#Cc1cnc(N2CCN(C(=O)CN3CCCC3c3cc(C(F)(F)F)c(=O)[nH]n3)CC2)s1` (racemic) [Compound 44rac]: the IC50 is at most 10 nM.
`N#Cc1ccc(N2CCN(C(=O)CN3CCCC3c3cc(C(F)(F)F)c(=O)[nH]n3)CC2)nc1` (racemic) [Compound 47rac] returned an IC50 of at most 10 nM.
In turn, `O=C(CN1CCCC1c1cc(C(F)(F)F)c(=O)[nH]n1)N1CCN(c2ncc(C(F)(F)F)s2)CC1` (racemic) [Compound 52rac] showed an IC50 of at most 10 nM.
With `CNC(=O)c1ccc(N2CCN(C(=O)CN3CCC3c3cc(C(F)(F)F)c(=O)[nH]n3)CC2)cn1` (racemic) [Compound 53rac], the concentration for half-maximal inhibition (IC50) is 10 to 100 nM.
With `O=C(CN1CCCC1c1c[nH]c(=O)c(C(F)(F)F)c1)N1CCN(c2ncc(C(F)(F)F)cn2)CC1` (racemic) [Compound 60rac, 5-(1-(2-oxo-2-(4-(5-(trifluoromethyl)pyrimidin-2-yl)piperazin-1-yl)ethyl)pyrrolidin-2-yl)-3-(trifluoromethyl)pyridin-2(1H)-one], the 50% inhibitory concentration (IC50) is at most 10 nM.
Still for that read-out and setting: with `O=C(CN1CCCC1c1cc(C2CC2)c(=O)[nH]n1)N1CCN(c2ncc(C(F)(F)F)cn2)CC1` (racemic) [Compound 65rac] the figure was 10 to 100 nM; with `O=C(CN1CCCC1c1cc(Cl)c(=O)[nH]n1)N1CCN(c2ncc(C(F)(F)F)cn2)CC1` (racemic) [Compound 68rac, 4-chloro-6-(1-(2-oxo-2-(4-(5-(trifluoromethyl)pyrimidin-2-yl)piperazin-1-yl)ethyl)pyrrolidin-2-yl)pyridazin-3(2H)-one], at most 10 nM.
Consider `N#Cc1[nH]c(=O)c(C(F)(F)F)cc1C1CCCN1CC(=O)N1CCN(c2ncc(C(F)(F)F)cn2)CC1` (racemic) [Compound 115rac], for which the IC50 is 100 to 1000 nM.
